# Reference: the supplement of paper PMC11417369
# ± gives the standard deviation of the averaged measurements. Some of the results follow.
# System: PfAP2-I AP2 domain 3 (GST-tagged)
# Assay: gcPBM binding intensity (ln(normalized median fluorescence intensity)); higher = stronger DNA binding
# Procedure, shortened: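 GST-fused DNA-binding domains of P. falciparum, expressed in E. coli, were applied at about 25 μg on average for 1 h to an Agilent 4 × 180k array of primer-extended double-stranded 36-bp intergenic genomic probes and negative controls. Binding intensity is the highest Masliner-normalised natural-log median intensity across replicate spots of either probe orientation, measured with Alexa488 anti-GST antibody and a 488 nm scan.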
row,Sequence,gcPBM binding intensity (ln)
1,AATTATAGCTGTATCTGTACGCATTTATTTATAGAC [XGTACX_site5959],8.21 ± 0.2
2,TTAAATAATATTAGCCGTACAATTTAAAGATAATAA [XGTACX_site8503],7.66 ± 0.48
3,TTTAATACTTTATATGCATGCAGAGAAAAATGCTTG [TGCATGCA_site286],7.76 ± 0.55
4,ATGAATATAATGAAGTGTACATAAAAATAATAAATA [XGTACX_site2481],7.97 ± 0.42
5,ATACATATAGGATGCACACATAATTCAAATACAATA [CACACA_site651],8.27 ± 0.46
6,TTTGAAATATATTTAGTGCATATATATTGATTATAA [GTGCAC_site9604],10.4 ± 0.34
7,CAATTTTGCCCTTCCTGTACATATATTGAAAAATAT [XGTACX_site6388],8.46 ± 0.15
8,ATCTAGTACATACATACACACAACAATGTTATGAGA [CACACA_site3989],7.95 ± 0.4
9,ATATTAAACAGACACACACACATATATTTATTTATA [CACACA_site7564],7.88 ± 0.52
10,TATAGCATATCTCACACACACATAATGAATATTATA [CACACA_site5877],7.58 ± 0.59
11,TATAGCTATGTATTCACACATAATATAAACTTTAAT [CACACA_site5889],7.54 ± 0.43
12,AAAATGAACTCACGAGCACACACACCCATATATATA [CACACA_site8247],8.24 ± 0.68
13,TGTATTATATAAAATTGTACATGCGAATTGTATAAC [XGTACX_site902],8.02 ± 0.39
14,ATTGTTTTATATAGAACACACATAAAAATATATATG [CACACA_site1193],7.72 ± 0.33
15,ATAAAATGAAATATATATGTGTATGCTTAACTTGTT [CACACA_negctrl_site431],7.58 ± 0.74
16,AAAGGATGTAATATAAACATATATATGTATATATAT [TGCATGCA_negctrl_site347],8.04 ± 0.66
17,TAATTTTTTTTAATAACACACATATATATATATATA [CACACA_site813],9.3 ± 0.33
18,TAATATTCCTTTTTAACACACATATGAACAAATAAA [CACACA_site153],7.87 ± 0.31
19,TAAAAATTTACATGTTGTACATATAATTATATAATC [XGTACX_site4577],7.82 ± 0.22

row,Sequence,gcPBM binding intensity (ln)
1,AGGCTGCCATATTATACACACATTTTTAAAAAAATT [CACACA_site3843],8.02 ± 0.4
2,AAATATTACCATGTGAAAATTTTACTGCAACATGAA [TGCATGCA_negctrl_site609],8.74 ± 0.14
3,TAAAATTCGAAAAATTGTACTATTTATATATCTGTA [XGTACX_site6478],7.36 ± 0.4
4,TAGTTAGGCCCTACATGTACATAATATATATTACTT [XGTACX_site1137],8.15 ± 0.59
5,ATCAACATTACATTTAGTACACATATATTTCTATGT [XGTACX_site4436],8.16 ± 0.36
6,CTAATTAATATTTGTACACACATATTTAACCTACTA [CACACA_site3191],8.01 ± 0.38
7,TATATAAGTATAAAATGTACATAAAATTTTATGTTA [XGTACX_site2613],7.69 ± 0.35
8,ACAAAATGTAAATAAACACACATATTTATATTTATA [CACACA_site6719],7.5 ± 0.32
9,AATTCACCAAAAAAAGTGCATATTCAATATATATTA,9.39 ± 0.15
10,AATAAAATATTATGTGCATGCTGTTTTATTTATTAA [TGCATGCA_site102],7.75 ± 0.69
11,TTGGTGGATAAATTTACACACAATAATTTTCGTTCA [CACACA_site467],8.44 ± 0.18
12,ATAATTTCAATATTTAATATCATATATATATATTTT [GTGCAC_negctrl_site713],7.83 ± 0.34
13,TAAAACAAAACAAAAATAGGATTATATTCCTTTTTT [CACACA_negctrl_site1003],7.23 ± 0.59
14,ATATATATATATATATGTACATATGTGTATATAACT [XGTACX_site495],9.4 ± 0.54
15,AAATAAAAAAATACCCAACACCATGCCAAATGTGAA [CACACA_negctrl_site411],7.58 ± 0.66
16,TTTTTTTTCTTTTTTTTTTTTTCAAAAGCTTATAAT [CACACA_negctrl_site1526],7.63 ± 0.55
17,GTGTATTTGGTGCGCACACACATGCAAAAAGAAATA [CACACA_site4768],10.4 ± 0.39
18,TGTATAATCATATATACACACACATATATATATATA [CACACA_site8674],9.36 ± 0.44
19,TTATATAAAAAAAAATGTACATATAATTGGTAAATT [XGTACX_site5180],7.92 ± 0.6

row,Sequence,gcPBM binding intensity (ln)
1,AAAAATATTTAAAATACACACATATATATAATATAT [CACACA_site2006],7.61 ± 0.39
2,TTGAAAATAATATGAAGTACATTATTTTTTTTTAAT [XGTACX_site4499],7.59 ± 0.49
3,AAAACTTTCCATGTTTGTACATAAAATATAATAATT [XGTACX_site2716],7.71 ± 0.43
4,CTTGAAAGATTTTATTGTACTCATAAGATACATTTC [XGTACX_site3178],7.5 ± 0.3
5,TCATACAATATTAAATGTACATATATATATATATAT [XGTACX_site8828],9.04 ± 0.74
6,ATATTAAAGCCTTTTTGTACATATAAATAAACATAG [XGTACX_site4667],7.95 ± 0.36
7,ATTTTTTTTTTTTTTTTTCATTTTTTTTTTTTTTTT [CACACA_negctrl_site1204],8.22 ± 0.35
8,TATATATTATATATATGTACATAATTCCATGTTTAG [XGTACX_site3943],7.78 ± 0.46
9,AACTCTTAAAAATAAACATGCAAATATTTACCTTCT [TGCATGCA_site986],7.64 ± 0.76
10,TAAATAATTCTTTTAGTACACACGAATAAGCAGATA [CACACA_site305],7.99 ± 0.35
11,GTTACATACATATACACACACATATATATATATATA [CACACA_site901],9.16 ± 0.4
12,TAATTTTTATTCAAGAGTACACAAAAGATAACTAAA [XGTACX_site4060],7.9 ± 0.21
13,TAGATACCTATAGAAACATGCAATTGAATATATTTC [TGCATGCA_site402],7.6 ± 0.41
14,TTCTTACACGTTTGCACACTAAAATATATATATATA [CACACA_site434],9.465 ± 0.021
15,TAAAAAAAATCATTCACACATATATGAAAAAAAAAA [CACACA_site5546],7.46 ± 1
16,AAAAAATGAAAATATTCCAAAATAGAGGGAAATGTA [GTGCAC_negctrl_site572],7.85 ± 0.57
17,TATGTGATAACACGCACACAAATGTATTTAATTTAT [CACACA_site5435],7.71 ± 0.4
18,CACAAAAATGTAATCACACATATATATATATATATA [CACACA_site5818],9.37 ± 0.46
